# Measurements taken from PubChem BioAssay (NCATS).
# Where “and” joins values, the source holds several entries; their conditions need not be identical. Equal entries are not always repeated. Inconclusive means that the source gave no clear call. Such entries were picked first, then a sample of the others. For part of these data: Potencies beside an inconclusive call are fits to weak or partial responses and may not hold up. Some compounds were tested as several samples or in several runs, with calls that do not always agree. Calls of active or inactive are those of the source. Calls follow the shape of the dose curve; as a rule, active = well fitted curve in the direction sought with a large enough effect; inconclusive = small, poorly fitted or top-dose-only effect, or another doubt; inactive = no such curve, though single readings can be large; an effect the other way counts as inactive or inconclusive.
# Key:
# [1] = qHTS Screen of the MIPE 4.0 Collection Against Ewings Sarcoma (RDES) (AID 1259252); also: nearly all actives have a fitted effect of over 35% in size; also: potency is read from the fitted curve at half-maximal effect;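 as to viability (percent of control): 100% = DMSO-treated cells and 0% = medium-only wells without cells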
# Outline: (§1)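 Log-phase cells in RPMI with 5% FBS attached for 4 h, then received compounds as a titration for 48 h at 37C, 5% CO2. Viability was read by CellTiter-Glo luminescence and normalized to DMSO and no-cell wells.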
# [2] = qHTS Screen of the MIPE 4.0 Collection Against Ewings Sarcoma (TC32) (AID 1259256); also: nearly all actives have a fitted effect of over 45% in size; also: potency is read from the fitted curve at half-maximal effect;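 as to viability (percent of control): 100% = DMSO-treated cells and 0% = medium-only wells without cells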
# Outline: as §1
# [3] = P-glycoprotein substrates identified in KB-8-5-11 adenocarcinoma cell line, qHTS therapeutic library screen (AID 1346987); also: nearly all actives have a fitted effect of over 65% in size; also: potency is read from the fitted curve at half-maximal effect
# Outline: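 Compounds are pinned in dose-response onto KB-8-5-11 cells (500 cells/well, colchicine-free medium) and left 72 h at 37 degree C. CellTiter-Glo luminescence then yields AC50 values.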
# [4] = Identifying Small Molecule Inhibitors of Pancreatic Cancer Stem Cells (A2780, Spheroid) (AID 1259357); settings: Potency: A2780 spheroid viability; viability (percent of control): at 46.1 µM (top of the series);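 also: compound exposure lasted 48 h before the ATP luminescence read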; also: potency is read from the fitted curve at half-maximal effect;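 as to viability (percent of control): 100% = DMSO treated cells and 0% = wells without cells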
# Outline: (§2)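 Luminescent ATP readout (CellTiter-Glo) quantifies surviving cells after a 48 h drug incubation. Normalization uses DMSO wells as no inhibition and media-only wells as full inhibition; bortezomib served as positive control.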
# [5] = Identifying Small Molecule Inhibitors of Pancreatic Cancer Stem Cells (SN12C, Spheroid) (AID 1259360); settings: Potency: SN12C spheroid viability; also: potency is read from the fitted curve at half-maximal effect;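 as to viability (% of control): 100% = DMSO-treated cells and 0% = wells without cells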
# Outline: as §2
# [6] = Identifying Small Molecule Inhibitors of Pancreatic Cancer Stem Cells (Panc1, Adherent) (AID 1259362); settings: Potency: viability; viability, % of control: at 46.1 µM (top of the series); also: potency is read from the fitted curve at half-maximal effect;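 as to viability, % of control: compound exposure lasted 48 h before the viability read; plate controls were DMSO-treated cells for no effect and cell-free media wells for full effect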
# Outline: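 Cytotoxicity read by CellTiter-Glo luminescence after 48 h compound exposure at 37C; percent activity scaled between DMSO-treated cells and cell-free wells. Spheroid formats used cells pre-formed 14 days in stem cell media on hydrogel.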
# [7] = Identifying Small Molecule Inhibitors of Pancreatic Cancer Stem Cells (Panc1, Spheroid) (AID 1259359); settings: Panc1 spheroid cancer stem cell viability; viability, % of control: at 46.1 µM (top of the series);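 also: compound exposure lasted 48 h before reading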
# Outline: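 Spheroids grown 14 days in stem cell media on nonadherent hydrogel before screening; cells attached 4 h, then compound exposure 48 h at 37C, 5% CO2. CellTiter-Glo luminescence normalized to DMSO (no inhibition) and no-cell wells (full inhibition).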
# [8] = qHTS Screen of the MIPE 4.0 Collection Against Ewings Sarcoma (TC71) (AID 1259253);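 also: 100% = DMSO-treated cells and 0% = medium-only wells without cells; nearly all actives have a fitted effect of over 40% in size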
# Outline: as §1
# [9] = Identifying Small Molecule Inhibitors of Pancreatic Cancer Stem Cells (A278, Adherent) (AID 1259361); settings: viability (% of control): at 46.1 µM (top of the series); also: nearly all actives have a fitted effect of over 35% in size
# Outline: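 Spheroids grown 14 days in stem cell media on hydrogel-coated nonadherent plates; 2D lines seeded directly. Compounds added after 4 h attachment, 48 h at 37C, 5% CO2; CellTiter-Glo luminescence normalized to DMSO (no inhibition) and no-cell wells (full inhibition).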
# [10] = qHTS Assay for Identifying Gametocytocidal Compounds (AID 743244); also: potency is read from the fitted curve at half-maximal effect; settings: P. falciparum 3D7 stage III-V gametocytes, alamarBlue, 72 h; max response: stronger effect = lower value
# Outline: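 Fluorescence at Ex 525/Em 598 nm, recorded 24 h after alamarBlue addition, reports residual metabolic activity of 3D7 gametocytes (stages III–V) following 72 h compound exposure at 37 °C, 5% CO2.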
# [11] = qHTS assay to identify small molecule inhibitors of chordoma cells - UCH-1 (AID 1259355); also: potency is read from the fitted curve at half-maximal effect; nearly all actives have a fitted effect of over 55% in size
# Outline: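 Screening used approved and investigational drugs in 15-point titration against 800 seeded cells per well. A fixed combination of auranofin with camptothecin, doxorubicin, rubitecan and topotecan followed compound addition, and growth was scored by CellTiter-Glo after 48hr.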
# [12] = qHTS assay to identify small molecule inhibitors of chordoma cells - UCH-2 (AID 1259356); settings: UCH-2 chordoma viability, CellTiter-Glo ATP luminescence, 48 h; also: potency is read from the fitted curve at half-maximal effect
# Tags tell the direction and shape of the fitted curve.
structure (smiles),measurement,setting,value
C[C@@H]1CCO[C@H]2Cn3cc(C(=O)NCc4ccc(F)cc4F)c(=O)c(O)c3C(=O)N12,Potency,[1],"inconclusive: 23.5 µM [inhibitor, single point]"
same,Potency,[2],"inconclusive: 18.7 µM [inhibitor, partial curve]"
same,Potency,[3],"inactive and inconclusive: 23.1 µM [inhibitor, partial curve, poor fit]"
N#CNC(=NCCCCCCOc1ccc(Cl)cc1)Nc1ccncc1,Potency,[1],inactive
same,Potency,[2],inactive
same,Potency,[3],active: 0.0042 µM
COCCNCCCn1c(C(=O)CF)c(-c2ccc(C)cc2)c2c(N)ncnc21,Potency,[1],"inconclusive: 10.5 µM [inhibitor, partial curve, poor fit]"
same,Potency,[2],"inconclusive: 1.05 µM [inhibitor, full curve, poor fit]"
same,Potency,[4],inactive
same,Potency,[5],"inconclusive: 33.2 µM [cytotoxic, partial curve, poor fit]"
same,"viability, % of control",[6],inconclusive: 84.2%
Cc1cc(-c2ccc(CC(=O)Nc3ccc(-c4cccnc4)cc3)cc2)ccn1,Potency,[1],active: 20.9 µM
same,Potency,[2],"inconclusive: 8.33 µM [inhibitor, partial curve, poor fit]"
same,Potency,[4],"inconclusive: 10.5 µM [cytotoxic, partial curve, poor fit]"
same,"viability, % of control",[7],inconclusive: 67.5%
same,Potency,[6],"inconclusive: 0.0074 µM [cytotoxic, full curve, poor fit]"
same,Potency,[3],"inconclusive: 5.9 µM [inhibitor, full curve]"
COc1nc(-c2ccc3c(c2)OCO3)n(-c2ccc(NC(=O)CSc3ccccc3)cc2)n1,Potency,[1],"inconclusive: 4.69 µM [inhibitor, partial curve, poor fit]"
same,Potency,[2],"inconclusive: 14.8 µM [inhibitor, partial curve, poor fit]"
same,viability (percent of control),[4],inconclusive: 93.4%
same,"viability, % of control",[7],inconclusive: 74.2%
same,Potency,[5],inactive
same,Potency,[6],"inconclusive: 0.0066 µM [cytotoxic, full curve, poor fit]"
same,Potency,[3],"inconclusive: 25.9 µM [inhibitor, partial curve, poor fit]"
c1coc(CNc2ncnc3nc[nH]c23)c1,Potency,[8],inactive
COc1cc2c(cc1Cc1cccc(Cl)c1F)c(=O)c(C(=O)O)cn2[C@H](CO)C(C)C,Potency,[1],active: 26.4 µM
same,Potency,[2],"inconclusive: 33.2 µM [inhibitor, single point]"
same,Potency,[3],"inconclusive: 37.2 µM [inhibitor, single point]"
CC(=O)OCC(=O)[C@@]1(O)[C@H](C)C[C@H]2[C@@H]3C=C(C)C4=Cc5c(cnn5-c5ccccc5)C[C@]4(C)[C@@H]3[C@@H](O)C[C@@]21C,Potency,[1],active: 6.62 µM
same,Potency,[2],active: 5.9 µM
same,Potency,[4],inactive
same,Potency,[5],active: 20.9 µM
same,IC50 (viability decrease),[9],active: 13.2 µM
same,Potency,[6],"inconclusive: 37.2 µM [cytotoxic, single point]"
same,Potency,[3],inactive
NC(=O)c1ccc(N(C(N)=O)c2c(F)cccc2F)nc1-c1ccc(F)cc1F,Potency,[1],"inconclusive: 26.4 µM [inhibitor, single point]"
same,Potency,[2],inactive
same,Potency,[4],"inconclusive: 0.0526 µM [cytotoxic, full curve, poor fit]"
same,Potency,[5],inactive
same,"viability, % of control",[6],inconclusive: 106%
Cc1cccc(-c2[nH]ncc2-c2ccc3ncccc3n2)n1,Potency,[1],"inconclusive: 7.43 µM [inhibitor, partial curve, poor fit]"
same,Potency,[2],inactive
same,Potency,[4],inactive
same,Potency,[5],"inconclusive: 0.034 µM [rising, full curve, poor fit]"
same,Potency,[6],"inconclusive: 0.108 µM [rising, full curve, poor fit]"
CC1(C)SCCN(S(=O)(=O)c2ccc(OCC#CCO)cc2)[C@@H]1C(=O)NO,Potency,[1],inactive
same,Potency,[2],inactive
same,Potency,[4],"inconclusive: 0.0372 µM [rising, full curve, poor fit]"
same,Potency,[5],inactive
same,"viability, % of control",[6],inconclusive: 99.8%
C[C@@H](CN1CC(=O)NC(=O)C1)N1CC(=O)NC(=O)C1,Potency,[1],inactive
same,Potency,[2],inactive
same,Potency,[3],inactive and active: 18.7 µM
COc1nccc(-c2c(-c3ccc(F)cc3)ncn2C2CCC(O)CC2)n1 (stereo not given),Potency,[1],"inconclusive: 20.9 µM [inhibitor, single point]"
same,Potency,[2],"inconclusive: 37.2 µM [inhibitor, single point]"
COC(=O)C1=C(C)NC(C)=C(C(=O)OCCCN2CCC(c3ccccc3)(c3ccccc3)CC2)C1c1cccc([N+](=O)[O-])c1 (stereo not given),Potency,[10],active: 10 µM
same,Potency,[1],"inconclusive: 26.4 µM [inhibitor, single point]"
same,Potency,[2],active: 29.6 µM
same,Potency,[11],active: 31.6 µM
same,Potency,[12],"inconclusive: 29.1 µM [cytotoxic, single point]"
